Hit rate of the full screen: of about 310,000 compounds, about 18,000 (5.8%) were called active. Inconclusive results, whose numbers are uncertain, are shown with a selection of clear calls. Calls come from the whole dose curve; as a rule, active = well fitted inhibition curve with a large enough effect; inconclusive = small, poorly fitted or top-dose-only effect, or another doubt; inactive = no such curve, though single readings can be large or run the other way. Potencies of inconclusive entries are left out as doubtful fits.
Assay: Primary qHTS for delayed death inhibitors of the malarial parasite plastid, 48 hour incubation
Settings: P. falciparum luciferase growth in erythrocytes; series mostly up to 28.7 µM
Outline: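 Luciferase-expressing parasites in RBCs, 2% Hct / 0.1% parasitemia final; RPMI 1640 + 0.5% Albumax; 37 C, 5% CO2, one generation; luminescence read-out, lower signal = inhibition.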
Potency is the fitted concentration of half-maximal effect; tags give direction and shape of the fitted curve.

| Structure (SMILES) | Potency |
| --- | --- |
| Cc1csc(NC(=O)C2CC(=O)N(c3ccc(C)c(C)c3)C2)n1 (centres undefined) | inactive |
| C[C@H]1CN=C(Nc2ccccc2)N1CCc1ccccc1 | inconclusive [inhibitor, partial curve, poor fit] |
| Cc1ccc([N+](=O)[O-])cc1NC(=O)CN1CCC(C)CC1 | inactive |
| COCCN(CCOC)C(=O)c1cc2c(=O)n3ccccc3nc2s1 | inactive |
| Cc1cc(C(=O)CSc2nc(N)cc(=O)[nH]2)c(C)n1CCc1ccc(Cl)cc1 | inconclusive [inhibitor, single point] |
| Cc1cc2c3c(c1)C1(C(=O)N3C(C)(C)CC2C)C(C#N)=C(N)Oc2cc(O)ccc21 (centres undefined) | active: 11.7 µM |
| COc1ccc(CN(CC2CCCO2)C(=O)c2cc3ccccc3oc2=O)cc1 (centres undefined) | inactive |
| COc1ccc(OC)c(C(=O)CSc2nnc(Cc3cccs3)n2CCc2ccccc2)c1 | active: 11.7 µM |
| CCN(CC)c1nc(Nc2ccc([N+](=O)[O-])cc2)nc(N(CC)CC)n1 | inconclusive [inhibitor, single point] |
| Cc1cc(C)nc(SCc2ccc(C(=O)N/N=C3\CCCC(=O)C3)cc2)n1 | inconclusive [inhibitor, partial curve, poor fit] |
| C=CCN1C(=O)N/C(=C/c2ccc(N3CCOCC3)o2)C1=O | inconclusive [inhibitor, single point] |
| O=C(Nc1ccc(F)c(F)c1)c1ccc2c(c1)OCO2 | inactive |
| CCOc1ccc(NS(=O)(=O)c2ccc(NC(=S)NC(C)=O)cc2)cc1 | inconclusive [inhibitor, partial curve, poor fit] |
| Cc1ccc(OCCn2c(Br)nc3c2c(=O)n(C)c(=O)n3C)cc1 | inconclusive [inhibitor, partial curve, poor fit] |
| CCN(C(=S)Nc1cccnc1)c1cccc2ccccc12 | inconclusive [inhibitor, single point] |
| COc1ccc(Cl)cc1NC(=O)CN(C)C(=O)C1CCN(C(=O)Nc2ccccc2)CC1 | inconclusive [inhibitor, partial curve, poor fit] |
| Cc1nn(C)cc1S(=O)(=O)N1CCN(c2cccc(Cl)c2)CC1 | inactive |
| N#C/C(=C\c1cn(-c2ccccc2)nc1-c1cc2ccccc2o1)c1nc2ccccc2[nH]1 | active: 1.04 µM |
| CC(C)[C@H](NS(=O)(=O)c1ccccc1)C(=O)OCC(=O)N1N=C(c2ccc(Cl)cc2)CC1c1ccco1 (some centres undefined) | inconclusive [inhibitor, partial curve, poor fit] |
| Fc1ccc(NC(=S)N2CCn3cccc3C2c2cccnc2)cc1 (centres undefined) | inconclusive [inhibitor, single point] |
| CCOc1ccc2c(c1)-c1c(ssc1=S)C(C)(C)N2C(=O)CSC1=NCCS1 | inconclusive [inhibitor, single point] |
| COc1ccc(/C=N/NC(=O)c2cc(-c3cccn3C)n[nH]2)cc1OC | active: 13.1 µM |
| CC(C)CN(C(=O)CN1CC=C(c2ccccc2)CC1)c1c(N)n(CC(C)C)c(=O)[nH]c1=O | inconclusive [inhibitor, partial curve] |

| Structure (SMILES) | Potency |
| --- | --- |
| CC(=O)NC1=C(Nc2ccc(N(C)C)cc2)C(=O)c2ccccc2C1=O | inconclusive [inhibitor, partial curve, poor fit] |
| COc1ccc(C(=O)C(OC(=O)c2ccccc2)c2ccccc2)cc1 (centres undefined) | inactive |
| Cc1cc(C)cc(NC(=S)NC2CC3CCCC(C2)N3Cc2cccs2)c1 (centres undefined) | active: 9.28 µM |
| Cc1nn2c(c1-c1ccccc1)N=C(c1ccco1)CC2c1ccccc1 (centres undefined) | active: 14.7 µM |
| Cc1ccc(C(=O)Nc2ccc(S(=O)(=O)N3CCOCC3)cc2)cc1C | inconclusive [inhibitor, single point] |
| CC(C)(C)N1C(=O)[C@H]2[C@@H](c3ccc(Br)cc3)N3C(=O)N(c4cccc(Cl)c4)C(=O)[C@@]3(C)[C@H]2C1=O | inconclusive [inhibitor, single point] |
| Cc1c(C(=O)N2CCCCC2C)sc2ncnc(N3CCc4ccccc4C3)c12 (centres undefined) | inconclusive [inhibitor, single point] |
| CCCCn1c(N)c(N(CC(C)C)C(=O)CN2C(=O)C3CCCCC3C2=O)c(=O)[nH]c1=O (centres undefined) | inconclusive [inhibitor, single point] |
| COc1ccccc1CN1CCCC(CN(CCN(C)C)C(=O)C2CCCC2)C1 (centres undefined) | inconclusive [inhibitor, single point] |
| Cc1noc(C)c1COc1ccccc1C(=O)N(C)CC(=O)Nc1ccc(Cl)c(Cl)c1 | inconclusive [inhibitor, partial curve, poor fit] |
| C=CCSc1nc2c(c(=O)[nH]c(=O)n2C)n1Cc1ccccc1 | inactive |
| COc1ccc(/C=C/C(=O)c2ccc(NC(=O)c3cccs3)cc2)cc1OC | inconclusive [inhibitor, single point] |
| CN(C)CCN(Cc1ccccc1)S(=O)(=O)c1ccc(-c2ccc(=O)[nH]n2)s1 | inconclusive [inhibitor, single point] |
| COC(=O)C1=C(c2ccc(Cl)c(C(F)(F)F)c2)C[C@@H]2CC[C@H]1N2C(=O)NCCCOC(C)C | inconclusive [inhibitor, single point] |
| CC1=C(C(=O)Nc2ccccc2C(=O)NCc2ccccc2)SCCO1 | inconclusive [inhibitor, single point] |
| CC1(C)CC(=O)/C(=C(\O)c2ccccc2)C(=NCCc2ccccc2)C1 | inconclusive [inhibitor, partial curve] |
| CC(/C=N/N1CCN(c2ccccc2)CC1)=C\c1ccccc1 | inactive |
| Cc1ccc(NC(=O)CN(C)C(=O)CSc2nnc(NC(C)C)s2)cc1 | inconclusive [inhibitor, single point] |
| COc1cccc(OC)c1OCCCCN1CCC(Cc2ccccc2)CC1 | inconclusive [inhibitor, single point] |
| COc1ccc(C(=O)NCN2CCN(c3ccccc3)CC2)cc1OC | inactive |
| Cc1ccc(S(=O)(=O)Nc2ccc(-n3c(C)nc4ccccc4c3=O)cc2)cc1 | inconclusive [inhibitor, single point] |
| Cc1cc(C)nc(SCc2nnc(SCC(=O)Nc3nc(-c4ccccc4)cs3)n2C)n1 | inconclusive [inhibitor, partial curve, poor fit] |
| CN1CCc2c([nH]c3ccccc23)C1 | inconclusive [inhibitor, single point] |

| Structure (SMILES) | Potency |
| --- | --- |
| Cc1ccc(-c2csc3nc4cc(C(=O)NC5CCC(O)CC5)ccc4c(=O)n23)cc1 (centres undefined) | inactive |
| COc1ccc2[nH]c(C)c(CCNc3ccc(C(F)(F)F)cc3[N+](=O)[O-])c2c1 | inconclusive [inhibitor, single point] |
| CCCCNC(=O)c1cccc2c(=O)c(C)c(-c3ccccc3)oc12 | inactive |
| Cc1ccc2nc(-c3cccnc3)cc(C(=O)N3CCN(c4ccc([N+](=O)[O-])cc4)CC3)c2c1 | active: 10.4 µM |
| O=C(Nc1ccc2ccccc2c1)c1ccccc1F | inactive |
| COc1cc(Br)c(CCNC(=O)c2ccco2)cc1OC | active: 5.22 µM |
| N#Cc1ccccc1NC(=O)c1ccc2c(c1)OCCO2 | inactive |
| O=C(NC1CCCCCC1)c1ccc(N2CCCC2=O)cc1 | inactive |
| COc1ccc(C(CC(=O)Nc2cc(OC)cc(OC)c2)n2cccc2)cc1 (centres undefined) | active: 13.1 µM |
| CN(C(=O)CC(NC(=O)c1ccccc1)(c1ccccc1)c1ccccc1)c1ccccc1 | inconclusive [inhibitor, single point] |
| CN(C)C(CNC1CC(C)(C)NC(C)(C)C1)c1cccc(F)c1 (centres undefined) | inconclusive [inhibitor, single point] |
| N#Cc1ccc(C(=O)Nc2ccc(N3CCN(C(=O)c4ccco4)CC3)cc2)c(F)c1 | inconclusive [inhibitor, single point] |
| Cc1cccn2cc(-c3ccc(F)cc3)nc12 | inactive |
| COc1ccc(NC(=O)CC2C(=O)N(c3ccc(Cl)cc3)C(=S)N2CCc2ccccn2)cc1 (centres undefined) | inconclusive [inhibitor, single point] |
| CC(/C=C/c1ccccc1)=N/NC(=O)c1cccc(Br)c1 | inconclusive [inhibitor, partial curve] |
| COc1ccc(NC(=O)NCCc2cccc(Cl)c2)cc1OC | inconclusive [inhibitor, partial curve, poor fit] |
| O=C(Nc1ccc2nc(-c3ccc4nc[nH]c4c3)[nH]c2c1)c1cccs1 | active: 2.62 µM |
| COc1ccccc1N1CCN(C(=O)c2sc3ncnc(N4CCN(c5ccccn5)CC4)c3c2C)CC1 | active: 11.7 µM |
| CN(C)c1ccc(/C=C/c2ccc3ccccc3[n+]2C)cc1 | active: 0.828 µM |
| Cc1ccnc(N2CCC(C(=O)NCc3ccccc3F)CC2)n1 | inactive |
| COCCn1c(SCC(=O)Nc2ncc(C)s2)nc2sc3c(c2c1=O)CCC3 | inconclusive [inhibitor, single point] |
| COc1cccc(NC(=O)Cn2c3ccc(F)cc3c3nc4n(c(=O)c32)CCS4)c1 | inconclusive [inhibitor, single point] |
| CCOc1cc2c(cc1OCC)C(C(=O)O)C(c1cc(Br)c(O)c(OC)c1)N(C)C2=O (centres undefined) | inconclusive [inhibitor, single point] |

Source: PubChem BioAssay AID504832 (National Center for Advancing Translational Sciences (NCATS), 2011)
